Data taken from PubChem BioAssay AID686970 (National Center for Advancing Translational Sciences (NCATS), 2013).
Out of some 360,000 compounds screened, about 6,000 (1.7%) were called active. This list was built around the results that the source calls inconclusive (neither active nor inactive); the mix of calls is not that of the screen. Calls come from the whole dose curve; as a rule, active = well fitted cell-killing curve with a large enough effect; inconclusive = small, poorly fitted or top-dose-only effect, or effect the other way; inactive = flat fitted curve, though single readings scatter. No potency is given beside an inconclusive call; the fits are too rough.

Assay: qHTS for induction of synthetic lethality in tumor cells producing 2HG: qHTS for the HT-1080-NT fibrosarcoma cell line;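 note: NT is the 2HG producing partner of a matched IDH1 knockdown line; nearly all actives have a fitted effect of over 55% in size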;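 for activity, negative = less viability: 0% = DMSO-treated cells and -100% = media-only wells without cells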
Settings: HT-1080-NT fibrosarcoma viability, CellTiter-Glo ATP luminescence, 48 h; activity, negative = less viability: at 46.1 µM (top of the series) unless noted
Outline: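 HT-1080-NT; 750 cells/well; 5% FBS RPMI; 48 h compound, 37 degrees C; CellTiter-Glo luminescence; curve fitting and curve-class assignment.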
Potency is the fitted concentration of half-maximal effect; tags give direction and shape of the fitted curve.

Compound	Potency	activity, negative = less viability
Cc1cc(SCC(=O)c2ccc(O)c(O)c2)n2nc(C)c(-c3ccccc3)c2n1	active: 8.2 µM	–
Cc1cc(C)cc(NS(=O)(=O)c2csc(C(N)=O)c2)c1	inactive	–
COc1cccc(-c2nn(-c3ccccc3)cc2/C=C(\C#N)C(=O)NCCCn2ccnc2)c1	inconclusive [cytotoxic, single point]	–
COc1ccc2nc(NC(=O)CC3Oc4ccccc4NC3=O)sc2c1 (centres undefined)	inconclusive [cytotoxic, partial curve]	–
COc1ccc(OC)c(CNc2nc3ccccc3n2CCN2CCCCC2)c1	inconclusive [cytotoxic, single point]	–
O=C(NCc1ccccn1)c1ccc2ccccc2n1	inconclusive [rising, partial curve, poor fit]	–
CC(=O)Nc1ccc(Nc2cc(C)nc3c(-c4ccc(Cl)cc4)c(C)nn23)cc1	inconclusive [cytotoxic, single point]	–
O=C(Cc1ccc(-c2ccccc2)cc1)NCc1ccccc1	inconclusive [cytotoxic, full curve]	–
CCN(CC)CCCN(Cc1cc2cc(OC)ccc2[nH]c1=O)C(=O)Nc1ccc(F)cc1	inconclusive [cytotoxic, single point]	–
C#CCn1c2ccccc2c(=O)n1C(C)C	inconclusive [cytotoxic, single point]	–
COc1ccc(C(=O)c2c[nH]c(C(=O)N=CN(C)C)c2)cc1	inactive	–
O=c1cc(N/N=C/c2ccccc2)[nH]c(=O)[nH]1	active: 3.66 µM	–
COCCOC(=O)C1=C(C)Nc2ncnn2C1c1ccccc1 (centres undefined)	inconclusive [cytotoxic, partial curve, poor fit]	–
Cc1ccc(C(NC(N)=O)c2ccccc2)cc1 (centres undefined)	inconclusive [cytotoxic, single point]	–
Cn1c(/C=C/c2ccc(Br)cc2)c([N+](=O)[O-])c(=O)n(C)c1=O	inconclusive [cytotoxic, single point]	–
CC(C)(C)c1ccccc1NC(=O)Nc1nc(C(N)c2ccccc2)cs1 (centres undefined)	inconclusive [cytotoxic, single point]	–
O=S(=O)(NCC(Nc1ccccc1)c1ccccc1)c1ccc(Cl)cc1 (centres undefined)	inactive	–
CCCCCCCCCn1c2c(c(=N)c3c1CCC3)CCCC2	active: 7.31 µM	–
CCCCCn1c(=O)[nH]c2cc(C(=O)N3CCN(c4ccc(F)cc4)CC3)ccc2c1=O	–	inconclusive: -18.5% [cytotoxic]
CC1C(=O)N(Cc2cn(CC3CCCCC3)nn2)CCS(=O)(=O)N1Cc1ccc(-c2ccccc2)cc1 (centres undefined)	inconclusive [cytotoxic, single point]	–
COc1ccc(CCN(C(=O)C(F)(F)F)C(C(=O)NC2CCCC2)c2cccs2)cc1 (centres undefined)	active: 8.91 µM	–
COc1ccc(OC)c2sc(NC(=O)c3ccc(S(=O)(=O)N(C)C)cc3)nc12	inconclusive [cytotoxic, single point]	–
CCOc1ccc(C2NC(=O)NC(C)=C2C(=O)OCc2ccccc2)cc1 (centres undefined)	inconclusive [cytotoxic, single point]	–
COc1cc(C(O)c2nc(-c3ccccc3)cs2)ccc1F (centres undefined)	inconclusive [cytotoxic, partial curve, poor fit]	–
Cc1c(C(=O)CN2CCSCC2)c2ccccc2n1C	inactive	–

Compound	Potency	activity, negative = less viability
C#CCOCCOCCOCCNc1nc(N2CCN(C(=O)[C@H](CCCCN)n3cc([C@@H](N)CC(N)=O)nn3)CC2)nc(N2CCN(C(=O)[C@H](CCCCN)n3cc([C@@H](N)CC(N)=O)nn3)CC2)n1	inactive	–
COc1ccccc1/C=N/NC(=O)CCn1cnc2ccccc21	inactive	–
Cc1cc(CN2CCCC(C(=O)Nc3cccc(-n4cccn4)c3)C2)cc(C)c1O (centres undefined)	inactive	–
O=C(CN1C(=O)c2ccccc2S1(=O)=O)NCc1c(F)cccc1F	inactive	–
O=C1C(Cl)=C(NC(=O)c2ccccc2)C(=O)C(Cl)=C1NC(=O)c1ccccc1	active: 10.3 µM	–
Cc1ccc(-n2nc3cc(Cl)c(NC(=O)c4ccco4)cc3n2)cc1	inconclusive [cytotoxic, single point]	–
CC(C)CCn1c(N)c(S(=O)(=O)c2cccs2)c2nc3ccccc3nc21	active: 22.4 µM	–
Cc1ccc(C(=O)N(Cc2nc3ccccc3c(=O)[nH]2)C2CCCC2)cc1	inactive	–
Oc1c(Cl)cc(Cl)cc1/C=N/NC(=S)NC1CC2C=CC1C2 (centres undefined)	inconclusive [cytotoxic, single point]	–
CCCc1sc(N/N=C/c2ccccn2)nc1-c1ccc(Br)cc1	active: 3.55 µM	–
CC(C)OCCCNC(=O)NC(=O)c1ccc(Cl)cc1	inactive	–
O=C(CCc1ccccc1)NCC(c1ccco1)N1CCc2ccccc21 (centres undefined)	active: 6.51 µM	–
CCCCNC(=O)C1C(c2ccccc2)=Nc2ccccc2N1C(=O)c1ccc(C)cc1 (centres undefined)	inconclusive [cytotoxic, single point]	–
COc1ccc(COCC(O)CN2CCc3ccccc3C2)cc1OC (centres undefined)	inactive	–
CCSCCc1nnc(NC(=O)Nc2cccc(C(F)(F)F)c2)s1	inconclusive [cytotoxic, single point]	–
CCOC(=O)C(=O)NNc1ccc(F)cc1	active: 11.6 µM	–
O=C(CCC(=O)N(CC(=O)NC1CCCC1)c1ccc(F)cc1)Nc1nccs1	inactive	–
CSc1nsc(SCC(=O)Nc2nncs2)n1	inconclusive [rising, full curve]	–
Cc1ccc(S(=O)(=O)NCc2cccnc2)cc1	inactive	–
Cc1cccc(Cn2c(=O)n(CCCC(=O)NCc3ccco3)c(=O)c3ccccc32)c1	inconclusive [cytotoxic, single point]	–
O=C(NC1CCOC1=O)c1ccccc1 (centres undefined)	inactive	–
O=C(Nc1ccc(F)cc1)c1nc(S(=O)(=O)Cc2ccccc2)ncc1Cl	active: 23.1 µM	–
CC(C(=O)NNS(=O)(=O)c1cccc(C(F)(F)F)c1)n1nnc(N2CCOCC2)n1 (centres undefined)	inconclusive [rising, single point]	–
CN(C)C(=O)c1cccc(-c2cnc3cccnn23)c1	inconclusive [rising, partial curve]	–
Cc1ccc(/C=N/Nc2cc(C)nc(NCc3ccccc3)n2)cc1	inconclusive [cytotoxic, single point]	–

Compound	Potency	activity, negative = less viability
Cc1ccc(NC(=O)CC2=NC(=O)C(CC(=O)Nc3ccccc3C)S2)cc1 (centres undefined)	inconclusive [cytotoxic, partial curve]	–
CCOC(=O)C1=C(c2ccccc2)NC(SCC(=O)Nc2cccc(C)c2)=C(C#N)C1c1ccco1 (centres undefined)	–	inconclusive: -31% [cytotoxic]
O=C(Nc1ccc2c(c1)CCCN2C(=O)c1ccccc1)c1ccccc1	inconclusive [cytotoxic, single point]	–
O=C(NS(=O)(=O)c1ccc2c(c1)OCCO2)c1ccccc1	–	inconclusive: 30.6%
CC(=O)Nc1cc2c3c(c1)CC(=O)N3CCC2	inactive	–
CCOc1ccc2nc(NS(=O)(=O)Cc3ccccc3)sc2c1	active: 5.8 µM	–
CCc1nnc(NC(=O)c2ccc(S(=O)(=O)NC3CCCCC3)cc2)s1	active: 6.31 µM	–
C/C(=C\c1ccccc1)C(=O)NCCc1ccccc1	inactive	–
CC(C)(C)n1nnnc1C(c1ccc(Cl)cc1)N(Cc1cccnc1)Cc1ccco1 (centres undefined)	inconclusive [cytotoxic, single point]	–
O=C(CNS(=O)(=O)c1ccccc1)Nc1ccc2c(c1)OCO2	inactive	–
O=C1NC[C@H](Cc2ccc(O)cc2)N(C[C@@H]2CCCN2C[C@H](Cc2ccccc2)N2C[C@H](Cc3ccccc3)N(CC3CCCCCC3)C(=O)C2=O)C1=O	inconclusive [cytotoxic, single point]	–
CN(O)/C=C/C(=O)c1ccc(Br)cc1	inactive	–
C=CC(C)(C)c1c(O)c(CC=C(C)C)c(O)c2c(=O)c3ccc(O)c(O)c3oc12	inconclusive [cytotoxic, single point]	–
Cc1ccc(C2(C)CC(C)(C)N(C(=O)CSc3nnc(C)s3)c3ccccc32)cc1 (centres undefined)	inconclusive [cytotoxic, single point]	–
O=C(CC1C(=O)NCCN1C(=O)Nc1ccc(F)cc1F)Nc1cc(Cl)ccc1Cl (centres undefined)	inactive	–
Cn1ccc2c(-c3ccc(CO)cc3)cc3c(c21)C1CCC3C1 (centres undefined)	inconclusive [cytotoxic, single point]	–
CCCCNc1nc2c(c(=O)n(C)c(=O)n2C)n1Cc1cccc(OC)c1	inconclusive [cytotoxic, single point]	–
CCNC(=S)N1CCN(c2nc(-c3ccc(F)cc3)cs2)CC1	inconclusive [cytotoxic, single point]	–
O=C1Cc2ccccc2C(c2c(Cl)cccc2Cl)N1 (centres undefined)	inactive	–
Oc1ccc(N=Nc2ccccc2)o1	active: 16.4 µM	–
Cc1cc(Nc2nnnn2-c2ccccc2)n(-c2ccc(Cl)cc2)n1	inconclusive [cytotoxic, single point]	–
OC[C@@H]1CN(Cc2ccc(Cl)cc2)C[C@H](n2cnc3c(Nc4ccccc4)ncnc32)O1	inconclusive [cytotoxic, single point]	–
O=c1c2ccccc2nc(/C=C/c2cc(Br)ccc2O)n1CCCO	inconclusive [cytotoxic, single point]	–
CCCCNC(=O)C(=O)Nc1ccc2c(c1)N(S(=O)(=O)c1cccs1)CCC2	inconclusive [cytotoxic, partial curve]	–
